Laboratory results published in the supplement of paper PMC11417369.
The list shows a part of the results.

The sequences below were run on PfSIP2 AP2 domain 1 (GST-tagged) (assay: gcPBM binding intensity (ln(normalized median fluorescence intensity)); higher = stronger DNA binding).
How it was run: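 GST-tagged P. falciparum DNA-binding domains, expressed in E. coli (about 25 μg on average), were applied for 1 h to an Agilent 4 × 180k array of primer-extended double-stranded 36-bp intergenic genomic probes plus negative controls. The binding buffer was 1× PBS with 1% milk, 0.2 mg/ml BSA, 0.5% salmon testes DNA and 0.03% Triton X-100. Bound protein was detected with Alexa488 anti-GST antibody and scanned at 488 nm. Binding intensity is the highest Masliner-normalised natural-log median intensity across replicate spots of either probe orientation.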
For “TGTCCTTATTTGCACACACACATATAAGAAATTTAA [CACACA_site7485]”, the “gcPBM binding intensity (ln)” value was 8.18. In the case of “TTTGTTTTATCTTATATGCACACGATAAAAAAAAAA [CACACA_site2673]”, the “gcPBM binding intensity (ln)” value is reported as 8.43. With “ATTATATGTAACACGTGTACCTATTTATGTATGCTT [XGTACX_site5748]” the “gcPBM binding intensity (ln)” value was 7.16. With “AATATACAAAATATCACACATATAAAATAATATATA [CACACA_site6067]” the “gcPBM binding intensity (ln)” value was 6.96. For “GATATATAAACATATACACACAAAAACATATTTATA [CACACA_site6734]”, the “gcPBM binding intensity (ln)” value was 6.98. “TGATAATTTCATTTTGCATGTGACAATACAAGATGT [TGCATGCA_site203]” was tested, and the “gcPBM binding intensity (ln)” value was 6.93. “AATGGTTCAACGTAGTGTACGTAATAAATAATAAAT [XGTACX_site8668]” was tested, and the “gcPBM binding intensity (ln)” value was 6.98. “AAATAATATGTAATCAAATTCACCAAACGAAAAAAA [TGCATGCA_negctrl_site33]” was tested, and the “gcPBM binding intensity (ln)” value was 7. “TACATATAAAAGTACACACACACACCCATATATATA [CACACA_site941]” was tested, and the “gcPBM binding intensity (ln)” value was 7.65. In the case of “TAAAATAAATTGTGCACACATATTTATAAATATGAA [CACACA_site2331]”, the “gcPBM binding intensity (ln)” value is reported as 9.66. “ATGGACTTTTATAGTTGTACATACTATGAGAACTTT [XGTACX_site2800]” was tested, and the “gcPBM binding intensity (ln)” value was 6.95. “TATTGCCCGAAACACACACACATATATATATATATA [CACACA_site2491]” was tested, and the “gcPBM binding intensity (ln)” value was 9.8. “GTTTATCACAGCCACGCACACATAATATATGTATAT [CACACA_site3669]” was tested, and the “gcPBM binding intensity (ln)” value was 7.15. In the case of “TATAATATTTACGACAGTACATATATATATATGTAT [XGTACX_site8332]”, the “gcPBM binding intensity (ln)” value is reported as 7.33. With “AAATAATTTGTTGACACACACACACCCATACATATA [CACACA_site2285]” the “gcPBM binding intensity (ln)” value was 7.12. For “TAACTCTATTTTTTTGCATGCTGAAGCTATGAGTTT [TGCATGCA_site821]”, the “gcPBM binding intensity (ln)” value was 6.72. With “TGACATAATGTGTGTAGTACATATATCGTTATTTGA [XGTACX_site5152]” the “gcPBM binding intensity (ln)” value was 6.86. “TGAATAAATATAAAAGGTACACATATAAATATATAT [XGTACX_site6349]” was tested, and the “gcPBM binding intensity (ln)” value was 7.11. “TATGTAGGTAAAAATTGTACTTTTTTTTTAATATTT [XGTACX_site2303]” was tested, and the “gcPBM binding intensity (ln)” value was 6.83. With “TATATATTTCATAATACACACGAAAAAAAAAAAAAA [CACACA_site8972]” the “gcPBM binding intensity (ln)” value was 6.96. With “ATAATATTATGTGTGAATATATCTTTAAAAAGGATA [GTGCAC_negctrl_site15]” the “gcPBM binding intensity (ln)” value was 6.86. In the case of “ATAAAAATAAAATAAGGTACAGACGAAAAAATTGAA [XGTACX_site5097]”, the “gcPBM binding intensity (ln)” value is reported as 7.3. In the case of “CACAAAAATAGACACACACACATATAAATAAATATA [CACACA_site6598]”, the “gcPBM binding intensity (ln)” value is reported as 7.11. In the case of “ATATATATATATATATGTACACATATTATAAAAAAA [XGTACX_site8644]”, the “gcPBM binding intensity (ln)” value is reported as 9.2. “TATATATATAAATACACACACACCGTCCGTGTTAAA [CACACA_site5623]” was tested, and the “gcPBM binding intensity (ln)” value was 7.91. “ATATATATTATATAGTGTACCTATGTATAATAATAT [XGTACX_site1683]” was tested, and the “gcPBM binding intensity (ln)” value was 7.16. In the case of “ATATATTATAATGATACACACAAGAAATAAAATTAC [CACACA_site3095]”, the “gcPBM binding intensity (ln)” value is reported as 7.12. In the case of “TTCTAGAAAACTGATCGTACAAATAAATATAGACAC [XGTACX_site2808]”, the “gcPBM binding intensity (ln)” value is reported as 7.73. With “TATAAAATAAAAGTAAATATATATATATATATATAT [TGCATGCA_negctrl_site208]” the “gcPBM binding intensity (ln)” value was 9.31. In the case of “AAAATAGGGATCACGTGTACATATAAAGTGACATAC [XGTACX_site8190]”, the “gcPBM binding intensity (ln)” value is reported as 7.37. For “AATGCATACACATATTGTACTAAGCCATACAACACA [XGTACX_site305]”, the “gcPBM binding intensity (ln)” value was 7.04. For “ATATATAATATTTATTGTACTATTTTATTTTTATAA [XGTACX_site705]”, the “gcPBM binding intensity (ln)” value was 7.07. In the case of “TTTGACATACCTCTTGCATGTGAAAAACTTTTCGCT [TGCATGCA_site364]”, the “gcPBM binding intensity (ln)” value is reported as 6.69. In the case of “AAAAAAGACCATGTTAGTACATAAGATTTTTTTCAT [XGTACX_site4298]”, the “gcPBM binding intensity (ln)” value is reported as 6.77. With “AATACGTTATTATTTTGTACATATAAATAATAAGTT [XGTACX_site815]” the “gcPBM binding intensity (ln)” value was 6.87. With “ATTTCTATTTGGGTTAGTACATATAAGTCTATTTTC [XGTACX_site3234]” the “gcPBM binding intensity (ln)” value was 7.08. For “AACATACGAATATTCACACATAAATATATAAATCGC [CACACA_site4672]”, the “gcPBM binding intensity (ln)” value was 7.04. “ACTCTTTTAACGCAAAGTACTTTTTAAAATATTTCG [XGTACX_site7534]” was tested, and the “gcPBM binding intensity (ln)” value was 7.47. For “TATTATATATATATCACACATATATTCATGTACATA [CACACA_site5432]”, the “gcPBM binding intensity (ln)” value was 7.24. “TTTTTTTTTTCTTTTTGTACATATTCATAACAAGTA [XGTACX_site2784]” was tested, and the “gcPBM binding intensity (ln)” value was 6.83. In the case of “TATATAATCGAGTGCACACACAAAAAAAAAGTGAAC [CACACA_site1483]”, the “gcPBM binding intensity (ln)” value is reported as 10.8. In the case of “TTAAAAAGATGTCACTGTACATAAAACATAAAATAT [XGTACX_site2886]”, the “gcPBM binding intensity (ln)” value is reported as 7.14. In the case of “TAAACAGACATATAAACACACATACATACATACATA [CACACA_site7215]”, the “gcPBM binding intensity (ln)” value is reported as 7.14. For “TTTCATGACAATGTTTGTACATAATAAAATATATTT [XGTACX_site7039]”, the “gcPBM binding intensity (ln)” value was 7.02.
